# Assay results as given in the supplement of paper PMC8728848.
# The other results are listed elsewhere or left out.
# B1: DC-ASGPR L+GEE (Homo sapiens) (protein)
# chain: MTRTYENFQYLENKVKVQGFKNGPLPLQSLLQRLRSGPCHLLLSLGLGLLLLVIICVVGFQNSKFQRDLVTLRTDFSNFTSNTVAEIQALTSQGSSLEETIASLKAEVEGFKQERQAGVSELQEHTTQKAHLGHCPHCPSVCVPVHSEMLLRVQQLVQDLKKLTCQVATLNNNGEEASTEGTCCPVNWVEHQDSCYWFSHSGMSWAEAEKYCQLKNAHLVVINSREEQNFVQKYLGSAYTWMGLSDPEGAWKWVDGTDYATGFQNWKPGQPDDWQGHGLGGGEDCAHFHPDGRWNDDVCQRPYHWVCEAGLGQTSQESH
# Columns and labels:
# Assay in all cases: glycan array binding signal (z-score within array); higher = stronger binding
# Settings in all cases: glycan notation: IUPAC condensed, linker removed
# [1] = target: Gal3S(b1-3)[Fuc(a1-4)]GlcNAc
# Summary of the method: (§1)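 Arrays were curated from the Consortium for Functional Glycomics database, 3228 in total, and kept only where the protein sequence was available. Binding is expressed as a within-array Z-score. This score was averaged across arrays of the same protein sequence at different concentrations or buffers and across linkers, and negative values can be read as non-binding.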
# Gal3S(b1-4)Glc = target: Gal3S(b1-4)Glc
# Summary of the method: as §1
# Gal3S(b1-4)Glc6S = target: Gal3S(b1-4)Glc6S
# Summary of the method: as §1
# Gal3S(b1-4)GlcNAc = target: Gal3S(b1-4)GlcNAc
# Summary of the method: as §1
# [2] = target: Gal3S(b1-4)[Fuc(a1-3)]Glc6S
# Summary of the method: as §1
# [3] = target: Gal3S(b1-4)[Fuc(a1-3)]GlcNAc
# Summary of the method: as §1
# [4] = target: Gal3S(b1-4)[Fuc(a1-3)]GlcNAc6S
# Summary of the method: as §1
# Gal3S4S(b1-4)GlcNAc = target: Gal3S4S(b1-4)GlcNAc
# Summary of the method: as §1
# Gal3S6S(b1-4)GlcNAc = target: Gal3S6S(b1-4)GlcNAc
# Summary of the method: as §1
# Gal3S6S(b1-4)GlcNAc6S = target: Gal3S6S(b1-4)GlcNAc6S
# Summary of the method: as §1
# Gal4S(b1-4)GlcNAc = target: Gal4S(b1-4)GlcNAc
# Summary of the method: as §1
# Gal4S6S(b1-4)GlcNAc = target: Gal4S6S(b1-4)GlcNAc
# Summary of the method: as §1
# Gal6P(b1-4)GlcNAc = target: Gal6P(b1-4)GlcNAc
# Summary of the method: as §1
# Gal6S(b1-3)GlcNAc = target: Gal6S(b1-3)GlcNAc
# Summary of the method: as §1
# Gal6S(b1-3)GlcNAc6S = target: Gal6S(b1-3)GlcNAc6S
# Summary of the method: as §1
# Gal6S(b1-4)Glc = target: Gal6S(b1-4)Glc
# Summary of the method: as §1
# Gal6S(b1-4)Glc6S = target: Gal6S(b1-4)Glc6S
# Summary of the method: as §1
# Gal6S(b1-4)GlcNAc = target: Gal6S(b1-4)GlcNAc
# Summary of the method: as §1
# Gal6S(b1-4)GlcNAc6S = target: Gal6S(b1-4)GlcNAc6S
# Summary of the method: as §1
# GalNAc(a1-3)Gal = target: GalNAc(a1-3)Gal
# Summary of the method: as §1
# GalNAc(a1-3)GalNAc = target: GalNAc(a1-3)GalNAc
# Summary of the method: as §1
# [5] = target: GalNAc(a1-3)GalNAc(b1-3)Gal(a1-4)Gal(b1-4)Glc
# Summary of the method: as §1
# [6] = target: GalNAc(a1-3)GalNAc(b1-3)Gal(a1-4)Gal(b1-4)GlcNAc
# Summary of the method: as §1
# GalNAc(b1-3)Gal = target: GalNAc(b1-3)Gal
# Summary of the method: as §1
# [7] = target: GalNAc(b1-3)Gal(a1-4)Gal(b1-4)GlcNAc
# Summary of the method: as §1
# [8] = target: GalNAc(b1-3)Gal(a1-4)Gal(b1-4)GlcNAc(b1-3)Gal(b1-4)Glc
# Summary of the method: as §1
# [9] = target: GalNAc(b1-3)Gal(a1-6)Gal(b1-4)Glc
# Summary of the method: as §1
# GalNAc(b1-3)GalNAc = target: GalNAc(b1-3)GalNAc
# Summary of the method: as §1
# GalNAc(b1-3)GlcNAc = target: GalNAc(b1-3)GlcNAc
# Summary of the method: as §1
# GalNAc(b1-4)Gal(b1-4)Glc = target: GalNAc(b1-4)Gal(b1-4)Glc
# Summary of the method: as §1
# GalNAc(b1-4)GlcNAc = target: GalNAc(b1-4)GlcNAc
# Summary of the method: as §1
# [10] = target: GalNAc(b1-4)GlcNAc(b1-2)Man
# Summary of the method: as §1
# [11] = target: GalNAc(b1-4)GlcNAc(b1-2)Man(a1-3)[GalNAc(b1-4)GlcNAc(b1-2)Man(a1-6)]Man(b1-4)GlcNAc(b1-4)GlcNAc
# Summary of the method: as §1
# [12] = target: GalNAc(b1-4)GlcNAc(b1-3)GalNAc(b1-4)GlcNAc
# Summary of the method: as §1
# GalNAc(b1-4)GlcNAc6S = target: GalNAc(b1-4)GlcNAc6S
# Summary of the method: as §1
# GalNAc(b1-6)GalNAc = target: GalNAc(b1-6)GalNAc
# Summary of the method: as §1
# GalNAc3S(b1-4)GlcNAc = target: GalNAc3S(b1-4)GlcNAc
# Summary of the method: as §1
binder,measurement,setting,value
B1,glycan array binding signal (z-score),[1],0.213
same,glycan array binding signal (z-score),Gal3S(b1-4)Glc,0.278
same,glycan array binding signal (z-score),Gal3S(b1-4)Glc6S,0.233
same,glycan array binding signal (z-score),Gal3S(b1-4)GlcNAc,-0.527
same,glycan array binding signal (z-score),[2],-0.592
same,glycan array binding signal (z-score),[3],0.09
same,glycan array binding signal (z-score),[4],0.135
same,glycan array binding signal (z-score),Gal3S4S(b1-4)GlcNAc,-0.435
same,glycan array binding signal (z-score),Gal3S6S(b1-4)GlcNAc,0.045
same,glycan array binding signal (z-score),Gal3S6S(b1-4)GlcNAc6S,-0.504
same,glycan array binding signal (z-score),Gal4S(b1-4)GlcNAc,-0.608
same,glycan array binding signal (z-score),Gal4S6S(b1-4)GlcNAc,-0.382
same,glycan array binding signal (z-score),Gal6P(b1-4)GlcNAc,0.291
same,glycan array binding signal (z-score),Gal6S(b1-3)GlcNAc,-0.347
same,glycan array binding signal (z-score),Gal6S(b1-3)GlcNAc6S,0.324
same,glycan array binding signal (z-score),Gal6S(b1-4)Glc,-0.107
same,glycan array binding signal (z-score),Gal6S(b1-4)Glc6S,-0.289
same,glycan array binding signal (z-score),Gal6S(b1-4)GlcNAc,-0.434
same,glycan array binding signal (z-score),Gal6S(b1-4)GlcNAc6S,-0.056
same,glycan array binding signal (z-score),GalNAc(a1-3)Gal,0.867
same,glycan array binding signal (z-score),GalNAc(a1-3)GalNAc,0.928
same,glycan array binding signal (z-score),[5],1.15
same,glycan array binding signal (z-score),[6],1.31
same,glycan array binding signal (z-score),GalNAc(b1-3)Gal,3.04
same,glycan array binding signal (z-score),[7],4.33
same,glycan array binding signal (z-score),[8],4.06
same,glycan array binding signal (z-score),[9],1.59
same,glycan array binding signal (z-score),GalNAc(b1-3)GalNAc,0.206
same,glycan array binding signal (z-score),GalNAc(b1-3)GlcNAc,1.66
same,glycan array binding signal (z-score),GalNAc(b1-4)Gal(b1-4)Glc,-0.512
same,glycan array binding signal (z-score),GalNAc(b1-4)GlcNAc,2.13
same,glycan array binding signal (z-score),[10],1.01
same,glycan array binding signal (z-score),[11],0.807
same,glycan array binding signal (z-score),[12],2.36
same,glycan array binding signal (z-score),GalNAc(b1-4)GlcNAc6S,2.26
same,glycan array binding signal (z-score),GalNAc(b1-6)GalNAc,-0.246
same,glycan array binding signal (z-score),GalNAc3S(b1-4)GlcNAc,-0.536
